# Experimental data taken from the supplement of paper PMC3334620.
# Over roughly 33,000 sequences, “E-score (-0.5 to 0.5)” has its median near -0.036; the highest 2% begin near 0.37. Some of the results follow.
# Target: T1, Yer064c (UniProt P40041)
# T1 sequence: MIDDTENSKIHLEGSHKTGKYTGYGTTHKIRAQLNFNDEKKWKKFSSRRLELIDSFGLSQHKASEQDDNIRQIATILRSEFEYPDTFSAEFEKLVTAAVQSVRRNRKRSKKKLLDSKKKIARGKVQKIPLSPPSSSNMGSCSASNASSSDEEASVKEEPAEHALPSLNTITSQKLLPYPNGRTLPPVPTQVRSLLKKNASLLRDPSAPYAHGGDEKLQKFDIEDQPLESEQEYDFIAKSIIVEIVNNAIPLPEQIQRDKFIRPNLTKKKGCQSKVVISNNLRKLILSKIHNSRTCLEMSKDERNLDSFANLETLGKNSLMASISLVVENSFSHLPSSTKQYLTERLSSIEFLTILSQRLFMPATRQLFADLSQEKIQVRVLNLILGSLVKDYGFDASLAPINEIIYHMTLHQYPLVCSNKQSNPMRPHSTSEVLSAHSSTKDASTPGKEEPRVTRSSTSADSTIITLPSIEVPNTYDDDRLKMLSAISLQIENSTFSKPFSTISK
# Assay: PBM E-score (8-mer binding enrichment) (E-score (-0.5 to 0.5)); higher = stronger / more preferred TF binding; most listed sequences are background and not binding sites
# Settings: protein concentration: 200 nM; construct: GST-full length
# In short: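 The E-score, a modified Wilcoxon-Mann-Whitney statistic, was computed by the Universal PBM Analysis Suite for every ungapped eight-base word pooled with its reverse complement. Scans behind it were normalised with masliner after bound GST-tagged yeast transcription factors were detected with fluorescent anti-GST. The proteins, at about 100-200 nM, had been applied to universal all-10-mer Agilent arrays made double-stranded by primer extension.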
row,Sequence,PBM E-score
1,CATATCTA,0.205
2,TGTGCAAA,0.0276
3,CGTCTTAC,-0.141
4,CCCTTACG,-0.14
5,CCGAAATC,0.0998
6,AGCGGGTA,-0.0553
7,AGACGCAA,-0.121
8,ATCGCCTG,-0.012
9,CGGGCGAG,-0.0528
10,GCAGAGGC,-0.146
11,AAATAACG,-0.0624
12,GGGCAGAA,-0.0543
13,GGATTCTA,0.176
14,GGATGTAA,-0.102
15,CACTTTAG,-0.0328
16,ATTGAGAC,0.302
17,CTCGTAGC,-0.0323
18,ATCTGTTC,-0.149
19,ATATTTGC,-0.18
20,AGCAGATC,0.112
21,ATCGCAGG,0.0211
22,GAGCGTGC,-0.0384
23,GCCAGCAC,-0.109
24,GTTAGGAA,-0.118
25,CGCACCCG,-0.11

row,Sequence,PBM E-score
1,TCGACGAA,-0.00207
2,TCCGGAAA,-0.0818
3,ATGCCCGC,-0.206
4,CACATGAG,0.149
5,ACTTAAAC,0.194
6,TAGACGCA,-0.147
7,CGAGCGCA,-0.142
8,CAACTACC,-0.163
9,AGCGAGGA,-0.139
10,CCGGGCGC,-0.315
11,CATACGGA,-0.0462
12,CATGAAAG,-0.00325
13,AGGGCAAA,-0.174
14,ATGTGTTC,0.1
15,GCGCAAAC,-0.25
16,GCTGCAAC,-0.133
17,CCGGGCGA,-0.0674
18,AAGCAGGG,-0.13
19,AGGACGGA,-0.103
20,GCATAATA,0.0384
21,AGCGTCGC,0.0021
22,ATGACACG,0.00041
23,AAACCGAG,0.0414
24,GGTGGGGA,-0.0167
25,AAACTGTA,-0.0246

row,Sequence,PBM E-score
1,ACAATTTG,-0.112
2,AAACGGCG,-0.109
3,CACTAAAC,0.108
4,AGTGTAAT,0.114
5,CCACGAGG,-0.165
6,AAATATAA,0.147
7,CTGTCCAC,-0.0958
8,ACTACAGC,0.0977
9,ATCGATTC,0.0522
10,GGGCTGAA,-0.0325
11,CGTTGCCA,-0.112
12,CACACACG,0.178
13,AGAGATAA,-0.0182
14,AACGCAGA,0.199
15,CGTGGACC,-0.213
16,AGTTTTTC,-0.205
17,ATCGGCTG,-0.0271
18,GTGTCCCA,-0.21
19,GGAGGCAA,-0.174
20,CAGCGAAC,-0.119
21,AGGTCGAG,-0.115
22,GCGCAATA,-0.0549
23,GGCACATA,-0.0326
24,AGAAGGGC,-0.138
25,ATCAGGGG,-0.00776

row,Sequence,PBM E-score
1,GTAATATA,0.141
2,CGGGCACG,-0.147
3,AACCTTCT,-0.151
4,ACGTCGCA,-0.227
5,ACTGGGCA,-0.289
6,GTATGCTA,-0.19
7,CACCACAA,-0.0358
8,CCGCTAGG,-0.0177
9,AATTTCAA,0.0526
10,ACAAACCT,-0.187
11,GTAAGAAC,0.106
12,CTCGTAAC,0.0792
13,ATATAAGG,-0.053
14,TATCACGA,0.0815
15,CCATCAGG,-0.11
16,CGGACACC,-0.138
17,TAGTCTGA,0.362
18,GTCCGACA,0.0427
19,GGGCGTTA,-0.138
20,AGCGGAGC,-0.328
21,CATCGGGA,0.03
22,GGCAAATA,-0.137
23,ATGATTTA,0.415
24,ACACCGAC,-0.00153
25,GTCCCATA,-0.0705

row,Sequence,PBM E-score
1,CAGGAGGG,-0.148
2,CCGCCGCA,-0.299
3,CGTCCACA,-0.164
4,CCCGGATA,0.0372
5,CTCTCATC,-0.0352
6,CGGATCAA,-0.0498
7,AAGATGTA,-0.0834
8,CTCCGAGC,0.0847
9,CATAATTA,0.12
10,ACCCTAAT,-0.13
11,ACGGGTTC,-0.0715
12,GGCTCTAC,-0.153
13,TAAGACAA,-0.0363
14,CTTCCCAC,-0.118
15,GCAACCAA,0.0385
16,GACCCTCC,-0.0513
17,TCAACGCA,0.0795
18,ATCGACGG,-0.0827
19,GGAACACC,-0.283
20,AGAACTAA,0.197
21,GACGGTGA,0.142
22,CCATTCGA,-0.011
23,CGTAGAGC,-0.0952
24,AGAGAGAC,0.178
25,GCGAATTA,-0.0352

row,Sequence,PBM E-score
1,GACGTGGA,-0.12
2,AAGTAGCC,-0.136
3,ACAATTGG,-0.0555
4,GAGCTTGC,-0.289
5,AACATTTC,-0.06
6,CCGACTCC,0.339
7,GGTAATCA,0.433
8,TAAAAGGA,0.0858
9,CTTGCGTC,-0.207
10,AGTTTACA,0.0123
11,ATGTGAAT,0.14
12,AAATCCAT,-0.0056
13,AGCTACAG,-0.144
14,CCAAGCGC,-0.184
15,CCTCCTTC,-0.302
16,AAAGAAGC,-0.0678
17,ATCCGGCG,-0.0969
18,ATACGGAT,-0.0661
19,ACAGCGCA,0.0121
20,GGACTGCC,-0.112
21,ATTAGCAC,0.0943
22,CCGACCGA,-0.175
23,GAGCCGCA,0.00564
24,CTACCCCC,-0.129
25,CGAATTGC,-0.28

row,Sequence,PBM E-score
1,AGGTACCG,-0.156
2,GGACTATA,0.184
3,GAATCTGC,-0.0859
4,TCGCGGAA,0.112
5,CCACCGGC,-0.201
6,ACCCCTTC,-0.18
7,CATCGCCG,-0.254
8,GCGACACC,-0.173
9,GATTTTGC,-0.13
10,CGTCTTTA,0.0496
11,CCCTTGCC,-0.0358
12,ATTCTTAA,0.0674
13,CCGGGAAC,-0.219
14,ATCGGGTC,-0.0248
15,CAGCACTC,0.0647
16,GCGAGAGA,-0.132
17,ATGTGGTA,0.047
18,CGTTAGAG,-0.0495
19,GAGGACAC,-0.221
20,ACCTCCAC,-0.149
21,ACTGATCT,0.217
22,GCTATCCA,-0.0339
